Source: US11685745B2, “Substituted benzoxazole and benzofuran compounds as PDE7 inhibitors” (Dart NeuroScience, LLC, priority 2017, dated 2023)

Molecular target: N-terminal truncated recombinant human PDE7B enzyme (Homo sapiens (Human), UniProt Q9NP56)
Assay: biochemical

| Compound | pIC50 |
| --- | --- |
| O=C1Nc2c(Cl)cc3cc(C(=O)NCc4ccc5c(c4)OCCO5)oc3c2C2(CCCCC2)N1 [Example 298, 5′-Chloro-N-(2,3-dihydro-1,4-benzodioxin-6-ylmethyl)-7′-oxo-7′,8′-dihydro-6′H-spiro[cyclohexane-1,9′-furo[2,3-f]quinazoline]-2′-carboxamide] | 6.00 to 7.00 |
| COCC1(NC(=O)c2nc3cc(Cl)c4c(c3o2)C2(CCCCC2)NC(=O)N4)CCOCC1 [Example 215, 5-Chloro-N-[4-(methoxymethyl)oxan-4-yl]-7-oxo-7,8-dihydro-6H-spiro[[1,3]oxazolo[5,4-f]quinazoline-9,1′-cyclohexane]-2-carboxamide] | 7.00 to 8.00 |
| O=C1Nc2c(Cl)cc3cc(C(=O)N4CCN(Cc5ccccc5)CC4)oc3c2C2(CCCCC2)N1 [Example 307, 2′-(4-Benzylpiperazine-1-carbonyl)-5′-chloro-7′,8′-dihydro-6′H-spiro[cyclohexane-1,9′-furo[2,3-f]quinazoline]-7′-one] | 7.00 to 8.00 |
| Cc1n[nH]c(C)c1CCN(C)C(=O)c1cc2cc(Cl)c3c(c2o1)C1(CCCCC1)NC(=O)N3 [Example 439, 5′-Chloro-N-[2-(3,5-dimethyl-1H-pyrazol-4-yl)ethyl]-N-methyl-7′-oxo-7′,8′-dihydro-6′H-spiro[cyclohexane-1,9′-furo[2,3-f]quinazoline]-2′-carboxamide] | 7.00 to 8.00 |
| CCc1nc2cc(Cl)c3c(c2o1)C1(CCCCC1)NC(=O)N3 [Example 15, 5′-Chloro-2′-ethyl-6′H-spiro[cyclohexane-1,9′-oxazolo[5,4-f]quinazolin]-7′(8′H)-one] | 7.00 to 8.00 |
| COCCN(Cc1cccs1)C(=O)c1cc2cc(Cl)c3c(c2o1)C1(CCCCC1)NC(=O)N3 [Example 462, 5′-Chloro-N-(2-methoxyethyl)-7′-oxo-N-(thiophen-2-ylmethyl)-7′,8′-dihydro-6′H-spiro[cyclohexane-1,9′-furo[2,3-f]quinazoline]-2′-carboxamide] | 7.00 to 8.00 |
| O=C1Nc2c(Cl)cc3cc(CO)oc3c2C2(CCCCC2)N1 [Example 26, 5′-Chloro-2′-(hydroxymethyl)-6′H-spiro[cyclohexane-1,9′-furo[2,3-f]quinazolin]-7′(8′H) one] | 7.00 to 8.00 |
| O=C1Nc2c(Cl)cc3nc(CN4CCN5CCC[C@@H]5C4)oc3c2C2(CCCCC2)N1 [Example 128, 2-[(8aR)-octahydropyrrolo[1,2-a]piperazin-2-ylmethyl]-5-chloro-7,8-dihydro-6H-spiro[[1,3]oxazolo[5,4-f]quinazoline-9,1′-cyclohexane]-7-one] | 7.00 to 8.00 |
| C[C@H](NCc1nc2cc(Cl)c3c(c2o1)C1(CCCCC1)NC(=O)N3)C(=O)N(C)C [Example 142, (2S)-2-({5-Chloro-7-oxo-7,8-dihydro-6H-spiro[[1,3]oxazolo[5,4-f]quinazoline-9,1′-cyclohexane]-2-ylmethyl}amino)-N,N-dimethylpropanamide] | 6.00 to 7.00 |
| CCN(CC)C(=O)CNCc1nc2cc(Cl)c3c(c2o1)C1(CCCCC1)NC(=O)N3 [Example 141, 2-({5-Chloro-7-oxo-7,8-dihydro-6H-spiro[[1,3]oxazolo[5,4-f]quinazoline-9,1′-cyclohexane]-2-ylmethyl}amino)-N,N-diethylacetamide] | 7.00 to 8.00 |
| Cc1cc(C)n(CCCN(C)C(=O)c2cc3cc(Cl)c4c(c3o2)C2(CCCCC2)NC(=O)N4)n1 [Example 312, 5′-Chloro-N-[3-(3,5-dimethyl-1H-pyrazol-1-yl)propyl]-N-methyl-7′-oxo-7′,8′-dihydro-6′H-spiro[cyclohexane-1,9′-furo[2,3-f]quinazoline]-2′-carboxamide] | 7.00 to 8.00 |
| CN1CCN(Cc2nc3cc(Cl)c4c(c3o2)C2(CCCCC2)NC(=O)N4)CC1 [Example 32, 5-Chloro-2-[(4-methylpiperazin-1-yl)methyl]-7,8-dihydro-6H-spiro[[1,3]oxazolo[5,4-f]quinazoline-9,1′-cyclohexane]-7-one] | 6.00 to 7.00 |
| CN(Cc1ccccc1)C(=O)c1cc2cc(Cl)c3c(c2o1)C1(CCCCC1)NC(=O)N3 [Example 408, N-Benzyl-5′-chloro-N-methyl-7′-oxo-7′,8′-dihydro-6′H-spiro[cyclohexane-1,9′-furo[2,3-f]quinazoline]-2′-carboxamide] | 6.00 to 7.00 |
| CC(C)N(Cc1nccn1C)C(=O)c1cc2cc(Cl)c3c(c2o1)C1(CCCCC1)NC(=O)N3 [Example 304, 5′-Chloro-N-[(1-methyl-1H-imidazol-2-yl)methyl]-7′-oxo-N-(propan-2-yl)-7′,8′-dihydro-6′H-spiro[cyclohexane-1,9′-furo[2,3-f]quinazoline]-2′-carboxamide] | 7.00 to 8.00 |
| O=C1CCN(Cc2nc3cc(Cl)c4c(c3o2)C2(CCCCC2)NC(=O)N4)CC1 [Example 90, 5-Chloro-2-[(4-oxopiperidin-1-yl)methyl]-7,8-dihydro-6H-spiro[[1,3]oxazolo[5,4-f]quinazoline-9,1′-cyclohexane]-7-one] | 6.00 to 7.00 |
| O=C1Nc2c(Cl)cc3nc(C(=O)N[C@H]4CCOC4)oc3c2C2(CCCCC2)N1 [Example 219, 5-Chloro-7-oxo-N-[(3S)-oxolan-3-yl]-7,8-dihydro-6H-spiro[[1,3]oxazolo[5,4-f]quinazoline-9,1′-cyclohexane]-2-carboxamide] | 7.00 to 8.00 |

| Compound | pIC50 |
| --- | --- |
| O=C1Nc2c(Cl)cc3cc(C(=O)N4Cc5cccnc5C4)oc3c2C2(CCCCC2)N1 [Example 464, 5′-Chloro-2′-{5H,6H,7H-pyrrolo[3,4-b]pyridine-6-carbonyl}-7′,8′-dihydro-6′H-spiro[cyclohexane-1,9′-furo[2,3-f]quinazoline]-7′-one] | 6.00 to 7.00 |
| O=C1Nc2c(Cl)cc3cc(CN4CCC(O)(c5ccccc5)CC4)oc3c2C2(CCCCC2)N1 [Example 495, 5′-Chloro-2′-[(4-hydroxy-4-phenylpiperidin-1-yl)methyl]-7′,8′-dihydro-6′H-spiro[cyclohexane-1,9′-furo[2,3-f]quinazoline]-7′-one] | 6.00 to 7.00 |
| COc1ccc(CN(C)C(=O)c2cc3cc(Cl)c4c(c3o2)C2(CCCCC2)NC(=O)N4)c(OC)c1 [Example 285, 5′-Chloro-N-[(2,4-dimethoxyphenyl)methyl]-N-methyl-7′-oxo-7′,8′-dihydro-6′H-spiro[cyclohexane-1,9′-furo[2,3-f]quinazoline]-2′-carboxamide] | 7.00 to 8.00 |
| O=C1Nc2c(Cl)cc3cc(C(=O)NCc4ccc(C(F)(F)F)cn4)oc3c2C2(CCCCC2)N1 [Example 367, 5′-Chloro-7′-oxo-N-{[5-(trifluoromethyl)pyridin-2-yl]methyl}-7′,8′-dihydro-6′H-spiro[cyclohexane-1,9′-furo[2,3-f]quinazoline]-2′-carboxamide] | 7.00 to 8.00 |
| O=C1Nc2c(Cl)cc3cc(CN4CCC(CCO)CC4)oc3c2C2(CCCCC2)N1 [Example 502, 5′-Chloro-2′-{[4-(2-hydroxyethyl)piperidin-1-yl]methyl}-7′,8′-dihydro-6′H-spiro[cyclohexane-1,9′-furo[2,3-f]quinazoline]-7′-one] | 6.00 to 7.00 |
| O=C1Nc2c(Cl)cc3cc(C(=O)N4CCN(C5CCCC5)CC4)oc3c2C2(CCCCC2)N1 [Example 459, 5′-Chloro-2′-(4-cyclopentylpiperazine-1-carbonyl)-7′,8′-dihydro-6′H-spiro[cyclohexane-1,9′-furo[2,3-f]quinazoline]-7′-one] | 6.00 to 7.00 |
| CNC(=O)CCN(C)Cc1cc2cc(Cl)c3c(c2o1)C1(CCCCC1)NC(=O)N3 [Example 497, 3-({5′-Chloro-7′-oxo-7′,8′-dihydro-6′H-spiro[cyclohexane-1,9′-furo[2,3-f]quinazoline]-2′-ylmethyl}(methyl)amino)-N-methylpropanamide] | 7.00 to 8.00 |
| COC1CN(Cc2nc3cc(F)c4c(c3o2)C2(CCCCC2)NC(=O)N4)C1 [Example 8, 5′-Fluoro-2′-((3-methoxyazetidin-1-yl)methyl)-6′H-spiro[cyclohexane-1,9′-oxazolo[5,4-f]quinazolin]-7′(8′H)-one] | 6.00 to 7.00 |
| CC(C)N1CCN(C(=O)c2cc3cc(Cl)c4c(c3o2)C2(CCCCC2)NC(=O)N4)CC1=O [Example 333, 5′-Chloro-2′-[3-oxo-4-(propan-2-yl)piperazine-1-carbonyl]-7′,8′-dihydro-6′H-spiro[cyclohexane-1,9′-furo[2,3-f]quinazoline]-7′-one] | 7.00 to 8.00 |
| O=C1Nc2c(Cl)cc3nc(CN4CCOC5(CCCC5)C4)oc3c2C2(CCCCC2)N1 [Example 103, 5-Chloro-2-{6-oxa-9-azaspiro[4.5]decan-9-ylmethyl}-7,8-dihydro-6H-spiro[[1,3]oxazolo[5,4-f]quinazoline-9,1′-cyclohexane]-7-one] | 7.00 to 8.00 |
| COc1cccc(CN(C)C(=O)c2cc3cc(Cl)c4c(c3o2)C2(CCCCC2)NC(=O)N4)c1 [Example 286, 5′-Chloro-N-[(3-methoxyphenyl)methyl]-N-methyl-7′-oxo-7′,8′-dihydro-6′H-spiro[cyclohexane-1,9′-furo[2,3-f]quinazoline]-2′-carboxamide] | 7.00 to 8.00 |
| CN(Cc1ccco1)C(=O)c1cc2cc(Cl)c3c(c2o1)C1(CCCCC1)NC(=O)N3 [Example 327, 5′-Chloro-N-(furan-2-ylmethyl)-N-methyl-7′-oxo-7′,8′-dihydro-6′H-spiro[cyclohexane-1,9′-furo[2,3-f]quinazoline]-2′-carboxamide] | 7.00 to 8.00 |
| COCCN1CCN(C(=O)c2nc3cc(Cl)c4c(c3o2)C2(CCCCC2)NC(=O)N4)CC1 [Example 196, 5-Chloro-2-[4-(2-methoxyethyl)piperazine-1-carbonyl]-7,8-dihydro-6H-spiro[[1,3]oxazolo[5,4-f]quinazoline-9,1′-cyclohexane]-7-one] | 7.00 to 8.00 |
| CO[C@H]1CCN(C(=O)c2nc3cc(Cl)c4c(c3o2)C2(CCCCC2)NC(=O)N4)C1 [Example 202, 5-Chloro-2-[(3S)-3-methoxypyrrolidine-1-carbonyl]-7,8-dihydro-6H-spiro[[1,3]oxazolo[5,4-f]quinazoline-9,1′-cyclohexane]-7-one] | 7.00 to 8.00 |
| O=C1Nc2c(Cl)cc3cc(C(=O)c4ccncc4)oc3c2C2(CCCCC2)N1 [Example 574, 5′-Chloro-2′-(pyridine-4-carbonyl)-7′,8′-dihydro-6′H-spiro[cyclohexane-1,9′-furo[2,3-f]quinazoline]-7′-one] | 6.00 to 7.00 |
| CN(C)C1CCN(C(=O)c2nc3cc(Cl)c4c(c3o2)C2(CCCCC2)NC(=O)N4)CC1 [Example 194, 5-Chloro-2-[4-(dimethylamino)piperidine-1-carbonyl]-7,8-dihydro-6H-spiro[[1,3]oxazolo[5,4-f]quinazoline-9,1′-cyclohexane]-7-one] | 7.00 to 8.00 |

pIC50: −log10 of the molar value.
